Some of the results follow.
B1: PhoQ; a variant is named by its letters at X, in order, P23837 (parent)
chain: MKKLLRLFFPLSLRVRFLLATAAVVLVLSLAYGMVALIGYSVSFDKTTFRLLRGESNLFYTLAKWENNKLHVELPENIDKQSPTMTLIYDENGQLLWAQRDVPWLMKMIQPDWLKSNGFHEIEADVNDTSLLLSGDHSIQQQLQEVREDDDDAEMTHSVAVNVYPATSRMPKLTIVVVDTIPVELKSSYMVWSWFIYVLSANLLLVIPLLWVAAWWSLRPIEALAKEVRELEEHNRELLNPATTRELTSLVRNLNRLLKSERERYDKYRTTLTDLTHSLKTPLXXLQXXLRSLRSEKMSVSDAEPVMLEQISRISQQIGYYLHRASMRGGTLLSRELHPVAPLLDNLTSALNKVYQRKGVNISLDISPEISFVGEQNDFVEVMGNVLDNACKYCLEFVEISARQTDEHLYIVVEDDGPGIPLSKREVIFDRGQRVDTLRPGQGVGLAVAREITEQYEGKIVAGESMLGGARMEVIFGRQHSAPKDE

Variants of: B1
Experiment: enrichment ratio after two sorts for PhoP signalling (ratio (wild type AVST 3.29)); higher = more functional
Details: with PhoP (E. coli)

Row | Variant | enrichment ratio
1 | GWCA | ≤ 0.25
2 | EGRQ | ≤ 0.25
3 | DEIL | ≤ 0.25
4 | WNKC | ≤ 0.25
5 | LYKG | ≤ 0.25
6 | MNCE | ≤ 0.25
7 | YKDD | ≤ 0.25
8 | PFLQ | ≤ 0.25
9 | LRCK | ≤ 0.25
10 | KHRL | ≤ 0.25
11 | NVKF | ≤ 0.25
12 | VQWQ | ≤ 0.25
13 | QKDV | ≤ 0.25
14 | NAIN | ≤ 0.25
15 | NFLV | ≤ 0.25
16 | WFKL | ≤ 0.25
17 | SNRG | ≤ 0.25
18 | DSKI | ≤ 0.25
19 | YAIR | ≤ 0.25
20 | IVWW | ≤ 0.25
21 | FKTQ | ≤ 0.25
22 | PPTV | ≤ 0.25
23 | SITE | 3.32
24 | SEMI | 17.1
25 | FTIT | ≤ 0.25

Row | Variant | enrichment ratio
26 | PWKR | ≤ 0.25
27 | YGQK | ≤ 0.25
28 | MEFD | ≤ 0.25
29 | NEVD | ≤ 0.25
30 | WKHT | ≤ 0.25
31 | AREA | ≤ 0.25
32 | ASMR | ≤ 0.25
33 | NIGL | ≤ 0.25
34 | TALC | 20.9
35 | HFKS | ≤ 0.25
36 | WKMI | ≤ 0.25
37 | ECQK | ≤ 0.25
38 | DVDS | ≤ 0.25
39 | MRPG | ≤ 0.25
40 | LHSM | ≤ 0.25
41 | IRTG | ≤ 0.25
42 | ERGE | ≤ 0.25
43 | NVDP | ≤ 0.25
44 | YCMR | ≤ 0.25
45 | FFNR | ≤ 0.25
46 | LELH | 0.321
47 | SYLY | 0.406
48 | GSYW | ≤ 0.25
49 | PWNV | ≤ 0.25
50 | PHVC | ≤ 0.25

Row | Variant | enrichment ratio
51 | TEPR | ≤ 0.25
52 | LCYK | ≤ 0.25
53 | KKNY | ≤ 0.25
54 | YEMK | ≤ 0.25
55 | EGSS | ≤ 0.25
56 | IPLF | ≤ 0.25
57 | RFAP | ≤ 0.25
58 | DWTF | ≤ 0.25
59 | VVAD | ≤ 0.25
60 | NILV | 0.722
61 | DVLY | ≤ 0.25
62 | NGSE | ≤ 0.25
63 | RMFQ | ≤ 0.25
64 | ILWP | ≤ 0.25
65 | THIT | ≤ 0.25
66 | AVAM | 3.19
67 | EHVC | ≤ 0.25
68 | PLYC | ≤ 0.25
69 | WFFV | ≤ 0.25
70 | PVNP | ≤ 0.25
71 | DCHW | ≤ 0.25
72 | IHAV | ≤ 0.25
73 | RILM | ≤ 0.25
74 | QFMT | ≤ 0.25
75 | ISLW | ≤ 0.25

Row | Variant | enrichment ratio
76 | PACM | ≤ 0.25
77 | VWDL | ≤ 0.25
78 | MIRY | ≤ 0.25
79 | FIYY | ≤ 0.25
80 | GHLP | ≤ 0.25
81 | DIAS | ≤ 0.25
82 | MYCQ | ≤ 0.25
83 | LWVW | ≤ 0.25
84 | GRYA | ≤ 0.25
85 | KGCQ | ≤ 0.25
86 | DPPP | ≤ 0.25
87 | MGWA | ≤ 0.25
88 | MMGK | ≤ 0.25
89 | LGHD | ≤ 0.25
90 | RFTT | ≤ 0.25
91 | MEMT | ≤ 0.25
92 | DFMQ | ≤ 0.25
93 | WWRR | ≤ 0.25
94 | QIDP | ≤ 0.25
95 | CFNC | ≤ 0.25
96 | PHFR | ≤ 0.25
97 | STLH | 12.2
98 | SEVT | 16.8
99 | PPTH | ≤ 0.25
100 | RDVL | ≤ 0.25

Row | Variant | enrichment ratio
101 | DMKS | ≤ 0.25
102 | QHIW | ≤ 0.25
103 | GFPE | ≤ 0.25
104 | MYCM | ≤ 0.25
105 | QGGI | 6.02
106 | GKFH | ≤ 0.25
107 | HGGC | ≤ 0.25
108 | MGEQ | ≤ 0.25
109 | TQEM | ≤ 0.25
110 | WKVA | ≤ 0.25
111 | LQNN | ≤ 0.25
112 | DKNY | ≤ 0.25
113 | TVIA | ≤ 0.25
114 | MLWK | ≤ 0.25
115 | GGLA | 9.6
116 | PCEM | ≤ 0.25
117 | VEAW | ≤ 0.25
118 | DWDC | ≤ 0.25
119 | VDVN | ≤ 0.25
120 | WVFT | ≤ 0.25
121 | KCIF | ≤ 0.25
122 | NDVC | ≤ 0.25
123 | WTNM | ≤ 0.25
124 | QHLG | ≤ 0.25
125 | VAEP | ≤ 0.25

Row | Variant | enrichment ratio
126 | NRKM | ≤ 0.25
127 | IGCV | ≤ 0.25
128 | SILS | 4.95
129 | PKNL | ≤ 0.25
130 | RFPC | ≤ 0.25
131 | WAFE | ≤ 0.25
132 | RFCC | ≤ 0.25
133 | SMSW | ≤ 0.25
134 | MCYK | ≤ 0.25
135 | EDYR | ≤ 0.25
136 | NMDW | ≤ 0.25
137 | ADWC | ≤ 0.25
138 | PHLV | ≤ 0.25
139 | VFCN | ≤ 0.25
140 | AGLY | 5.76
141 | GSCL | 21.5
142 | LPDT | ≤ 0.25
143 | SEYV | 5.27
144 | PLKT | ≤ 0.25
145 | QDTM | ≤ 0.25
146 | NAMK | ≤ 0.25
147 | ERQC | ≤ 0.25
148 | GLRA | ≤ 0.25
149 | GPCS | ≤ 0.25
150 | PEYE | ≤ 0.25

Row | Variant | enrichment ratio
151 | RDQL | ≤ 0.25
152 | QVIP | 0.813
153 | DFWN | ≤ 0.25
154 | VLMQ | ≤ 0.25
155 | DSSH | ≤ 0.25
156 | LGWT | ≤ 0.25
157 | DRMI | ≤ 0.25
158 | NFLC | ≤ 0.25
159 | WYDS | ≤ 0.25
160 | FMHV | ≤ 0.25
161 | DIPH | ≤ 0.25
162 | CFNV | ≤ 0.25
163 | WAPL | ≤ 0.25
164 | LWLY | ≤ 0.25
165 | WNHA | ≤ 0.25
166 | MHFD | ≤ 0.25
167 | EFKD | ≤ 0.25
168 | QTLI | ≤ 0.25
169 | FVWF | ≤ 0.25
170 | DSFM | ≤ 0.25
171 | FSGL | ≤ 0.25
172 | TKPR | ≤ 0.25
173 | LRKR | ≤ 0.25
174 | AYEH | ≤ 0.25
175 | GQNK | ≤ 0.25

Row | Variant | enrichment ratio
176 | VYFA | ≤ 0.25
177 | MANR | ≤ 0.25
178 | KAGI | ≤ 0.25
179 | WQIL | ≤ 0.25
180 | WLIP | ≤ 0.25
181 | HKGI | ≤ 0.25
182 | DSMW | ≤ 0.25
183 | FYGM | ≤ 0.25
184 | QDST | ≤ 0.25
185 | WNSK | ≤ 0.25
186 | AQYA | ≤ 0.25
187 | YTAA | ≤ 0.25
188 | YLCC | 0.642
189 | ALTW | 10.5
190 | NHAI | ≤ 0.25
191 | KTEE | ≤ 0.25
192 | YSMC | 2.37
193 | TRWP | ≤ 0.25
194 | MIPN | ≤ 0.25
195 | FIYS | ≤ 0.25

— a collection of fitness landscapes (doi:10.1126/science.1257360)
